In PubChem BioAssay AID686971 (National Center for Advancing Translational Sciences (NCATS), 2013):
Screen size: about 360,000 compounds; about 7,500 (2.1%) were called active. The shares of active, inactive and inconclusive entries below differ from those in the screen. Calls follow the shape of the dose curve; as a rule, active = well fitted cell-killing curve with a large enough effect; inconclusive = small, poorly fitted or top-dose-only effect, or effect the other way, or another doubt; inactive = no such curve, though single readings can be large or run the other way. Potencies of inconclusive entries are left out as doubtful fits.
Potency is read from the fitted curve at half-maximal effect; tags tell the direction and shape of the fitted curve.

Assay: qHTS for induction of synthetic lethality in tumor cells producing 2HG: qHTS for the HT-1080-IDH1KD cell line
Details: HT-1080 IDH1 knockdown viability, ATP luminescence, 48 h; series mostly up to 46.1 µM
Procedure, shortened: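 Knockdown cells (IDH1KD HT-1080) received compounds 2 h after plating at 750 cells/well and were kept 48 h at 37 °C in 5% FBS RPMI. A CellTiter-Glo luminescence read gave % activity for curve fitting.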
For `COc1ccc(NC(=O)COC(=O)c2cc(OC)c(OC)cc2NC(=O)c2ccco2)cc1OC`, the Potency was inconclusive [cytotoxic, single point]. With `COc1cccc(/C=C2/CCC(CN(C)C)C2=O)c1` (stereo not given) the Potency was inconclusive [cytotoxic, full curve]. For `CCN(CC)CCCn1c(=S)[nH]c2cc(Cl)ccc2c1=O`, the Potency was inconclusive [cytotoxic, single point]. With `O=C(CN1C(=O)C(=O)N(Cc2ccccc2)C1=O)Nc1cc(Cl)cc(Cl)c1` the Potency was inconclusive [cytotoxic, single point]. In the case of `O=C(COC(=O)c1cccnc1Cl)NCc1cccs1`, the Potency is reported as “inactive”. In the case of `CN(C)S(=O)(=O)N1CCN(S(=O)(=O)N2CCOCC2)CC1`, the Potency is reported as inconclusive [rising, single point]. With `Cc1cc(Cl)ccc1OCC(=O)NCCOC(=O)Nc1sc(=S)n(C)c1C` the Potency was inconclusive [cytotoxic, partial curve, poor fit]. In the case of `CCc1ccc(NC(=O)CCCN2C(=O)C3CC=CCC3C2=O)cc1` (stereo not given), the Potency is reported as inconclusive [cytotoxic, single point]. For `Cc1n[nH]c(=O)nc1N1CCc2ccccc2C1`, the Potency was “inactive”. For `O=C(NNC(=O)c1ccco1)c1ccco1`, the Potency was “inactive”. With `COc1ccccc1N1CCN(C(=O)c2ccc3[nH]c4c(c3c2)CC(C)CC4)CC1` (stereo not given) the Potency was inconclusive [cytotoxic, single point]. For `CN(Cc1ccccc1)S(=O)(=O)c1ccc(C(=O)Nc2nnc(C3CC3)o2)cc1`, the Potency was inconclusive [cytotoxic, partial curve]. For `COc1ccc(CCNc2c3ccccc3nc3ccccc23)cc1OC`, the Potency was inconclusive [cytotoxic, single point]. In the case of `O=C(Nc1ccc(-c2noc(CCc3ccccc3)n2)cc1)c1ccco1`, the Potency is reported as inconclusive [cytotoxic, single point]. For `COc1ccccc1/C=C(/NC(=O)c1ccccc1)C(=O)NCCCn1ccnc1`, the Potency was “inactive”. In the case of `NNC(=O)c1cc(O)c(O)c(O)c1`, the Potency is reported as inconclusive [cytotoxic, single point]. For `CC(=O)N1CCN(c2ccc(NC(=S)NC(=O)COc3ccc(C(C)(C)C)cc3)cc2)CC1`, the Potency was inconclusive [cytotoxic, partial curve]. For `COc1cc(OC)cc(C(=O)Nc2ccc(C(=O)Nc3ccccc3OC)cc2)c1`, the Potency was inconclusive [cytotoxic, single point]. With `CCc1nc2ccc(C(=O)NCc3ccc(OC)cc3)cn2c1N(C)CCC(C)C` the Potency was inconclusive [cytotoxic, single point]. For `O=C(O)c1cccc(Nc2nc(N3CCOCC3)nc(N3CCOCC3)n2)c1`, the Potency was “inactive”. In the case of `O=C(N/N=C(\c1ccccc1)c1ccccn1)c1cccc([N+](=O)[O-])c1`, the Potency is reported as inconclusive [cytotoxic, full curve]. For `O=C(c1ccc2c(=O)n(C3CCCC3)c(=S)[nH]c2c1)N1CCCCCC1`, the Potency was “inactive”. With `O=C(Nc1ccc2oc(-c3cccnc3)nc2c1)c1ccc2c(c1)OCCO2` the Potency was inconclusive [cytotoxic, partial curve]. For `C=C(C)CNC(=S)NNC(=O)c1ccco1`, the Potency was inconclusive [cytotoxic, partial curve, poor fit]. In the case of `Cc1nnsc1Sc1ccccn1`, the Potency is reported as inconclusive [rising, partial curve]. In the case of `CC(C(=O)N1CCc2ccccc21)N1CCN(S(=O)(=O)c2ccc(C(F)(F)F)cc2)CC1` (stereo not given), the Potency is reported as “inactive”. With `CS(=O)(=O)N1CCc2cc(-c3csc(NC(=O)Cc4ccccc4)n3)ccc21` the Potency was inconclusive [cytotoxic, single point]. With `O=C(Nc1cccc(-c2cnc3ccccc3n2)c1)c1ccc(Cl)cc1` the Potency was “inactive”. For `CC1(c2cccc3ccccc23)OC(=O)c2ccccc21` (stereo not given), the Potency was inconclusive [cytotoxic, full curve, poor fit]. With `Cc1cccc(Cn2nc(C(C)(C)C)cc2C(=O)Nc2ccc(F)cc2)c1` the Potency was inconclusive [cytotoxic, partial curve, poor fit]. With `COc1ccc(S(=O)(=O)Nc2c(C)cc(C)cc2C)c2cccnc12` the Potency was “inactive”. With `COc1ccc(S(=O)(=O)N(C)CC(=O)N2CCC(C(N)=O)CC2)cc1` the Potency was inconclusive [rising, partial curve, poor fit]. For `CCCOC(=O)c1ccc(-c2c(C)noc2-c2ccc(OC)cc2O)o1`, the Potency was inconclusive [cytotoxic, single point]. With `CCN(CC)C(=O)COc1ccc2c3c(c(=O)oc2c1)CCCC3` the Potency was inconclusive [rising, partial curve]. With `CCc1ccccc1NC1=NCC(=O)N1C1CCCC1` the Potency was “inactive”. With `COc1ccc(C(CNC(=O)c2cccc(S(=O)(=O)N3CCCc4ccccc43)c2)N(C)C)cc1` (stereo not given) the Potency was inconclusive [cytotoxic, single point]. With `COc1ccc(C(=O)O/N=C(\N)c2ccccc2)cc1` the Potency was inconclusive [cytotoxic, single point]. In the case of `O=C(/C=C/c1c(F)cccc1Cl)N1CCc2ccccc2C1`, the Potency is reported as “inactive”. With `CCN(CC)c1ccc(Nc2nc(Cl)ncc2Br)cc1` the Potency was “inactive”. For `COc1cccc(N2CC(O)=C(c3nc4ccccc4s3)C2=N)c1`, the Potency was inconclusive [cytotoxic, full curve]. With `Fc1cccc(Cc2c(-c3ccco3)nc3c4ccccc4ccn23)c1` the Potency was inconclusive [cytotoxic, single point]. With `C=CCc1cc(Cl)ccc1OCCCNC(C)CC` (stereo not given) the Potency was inconclusive [cytotoxic, single point]. In the case of `CCN(C(=O)CCS(=O)(=O)c1cccc2nonc12)c1ccc(C)c(C)c1`, the Potency is reported as “inactive”. In the case of `CCc1noc(C)c1C(=O)N1CCSC1=Nc1cccc(Cl)c1C`, the Potency is reported as inconclusive [cytotoxic, single point]. With `O=C(c1ccccc1)c1nn(-c2ccc(Cl)cc2)c(=O)cc1C(F)(F)F` the Potency was active: 20.6 µM.
